# Measured values published in PubChem BioAssay AID360 (National Center for Advancing Translational Sciences (NCATS), 2006).
# In all, about 48,000 compounds went through this assay and about 550 (1.1%) were called active. Not shown: some 4% with an inconclusive outcome. No stated cut-off is given here; in the data, active means potency below about 15 µM; inconclusive means mostly about 16 µM to 33 µM; inactive means weaker than that. The list shows a part of the results.
# Target: Lysosomal acid glucosylceramidase (Homo sapiens) (UniProt P04062)
# Experiment: Glucocerebrosidase;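 further: the screen sought inhibitors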
# Conditions: purified enzyme, resorufin glucoside fluorescence (screen aimed at inhibitors), 20 min
# Summary of the method: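 Wild-type enzyme at 0.2 nM final in 50mM citric acid/KH2PO4, 10mM sodium taurocholate, 0.01% tween-20, pH 5.9, with resorufin beta-D-glucopyranoside at 30 uM final. Compounds titrated, 20 min at RT, red fluorescence read; AC50 from titration.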
# Potency means the concentration at half of the fitted maximal effect.
# UniProt P04062, sequence (P04062 whole entry, looked up): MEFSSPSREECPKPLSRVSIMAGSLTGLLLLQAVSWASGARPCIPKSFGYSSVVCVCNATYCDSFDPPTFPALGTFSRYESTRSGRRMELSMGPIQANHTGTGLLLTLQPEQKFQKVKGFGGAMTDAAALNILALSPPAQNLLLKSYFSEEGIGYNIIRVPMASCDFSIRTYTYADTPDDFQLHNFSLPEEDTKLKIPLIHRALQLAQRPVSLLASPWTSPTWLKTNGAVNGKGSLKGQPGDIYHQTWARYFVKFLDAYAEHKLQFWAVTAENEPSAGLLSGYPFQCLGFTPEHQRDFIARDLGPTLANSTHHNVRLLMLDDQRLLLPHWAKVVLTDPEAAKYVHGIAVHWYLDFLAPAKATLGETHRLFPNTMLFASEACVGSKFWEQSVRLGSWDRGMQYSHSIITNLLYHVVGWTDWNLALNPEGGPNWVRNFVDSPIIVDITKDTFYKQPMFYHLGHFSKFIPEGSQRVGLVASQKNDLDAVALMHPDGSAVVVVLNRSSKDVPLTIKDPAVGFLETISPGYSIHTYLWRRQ
row,SMILES,Potency
1,COc1cc(C(=O)NC2CC3CCCC(C2)N3CC(=O)Nc2ccccc2)cc(OC)c1OC (configuration not stated),inactive: > 76.9 µM
2,O=C(Nc1ccccc1N1CCOCC1)c1ccc(Br)o1,inactive: > 76.9 µM
3,CCN(CC)CCOC(=O)C1(c2ccccc2)CCOCC1,inactive: > 76.9 µM
4,O=C(CSc1nnc(-c2ccco2)n1-c1ccccc1)N1CCN(C(=O)c2ccco2)CC1,inactive: > 76.9 µM
5,CCOC(=O)C1C(c2ccccc2Cl)NC(=O)N(C)C1(O)C(F)(F)F (configuration not stated),inactive: > 76.9 µM
6,Cc1cc(NC(=O)CSc2nc(C3CC3)nc3sc4c(c23)CCC(C)C4)no1 (configuration not stated),inactive: > 76.9 µM
7,Cc1ccc(OCc2nnc(SCC(=O)N3CCOCC3)n2C)cc1,inactive: > 76.9 µM
8,O=c1cc(-c2cccc3ccccc23)[nH][nH]1,inactive: > 76.9 µM
9,CCCCc1cc(=O)oc2cc(C)cc(OC(C)C(=O)O)c12 (configuration not stated),inactive: > 76.9 µM
10,COCCn1c(=S)[nH]c2cc(C(=O)N3CCN(Cc4ccc5c(c4)OCO5)CC3)ccc2c1=O,inactive: > 76.9 µM
11,COc1cc(CC(=O)Oc2ccc3c(c2)OCO3)cc(OC)c1OC,inactive: > 76.9 µM
12,COc1ccc(N=C2C(=O)Nc3ccccc32)cc1,inactive: > 76.9 µM
13,CC(C)c1nnc(NC(=O)CCC(=O)NCc2ccco2)s1,inactive: > 76.9 µM
14,CCN1CCCC1CNC(=O)c1ccc(CS(=O)(=O)c2ccccc2C)o1 (configuration not stated),inactive: > 76.9 µM
15,C=CCn1c(SCC(=O)Nc2ccc(C(=O)OC(C)C)cc2)nnc1-c1cccs1,inactive: > 76.9 µM
16,CC(=O)Cc1ccccc1OC(=O)c1ccco1,inactive: > 76.9 µM
17,COc1ccc(-c2noc(CSc3nc(N)c(-c4ccccc4)c(=O)[nH]3)n2)cc1,inactive: > 76.9 µM
18,O=C(CN1CCOCC1)Nc1cccc(Cl)c1Cl,inactive: > 76.9 µM
19,Nc1nc(-c2ccccc2)cc(N2CCCCC2)n1,inactive: > 76.9 µM

row,SMILES,Potency
1,C(=C\c1ccccc1)/CSc1nnc(-c2ccccn2)n1Cc1ccco1,inactive: > 76.9 µM
2,CCc1c(C)nc(N)n2c(SCC(=O)N3CCN(c4ccccc4)CC3)nnc12,inactive: > 76.9 µM
3,CCOC(=O)C(NC(C)=O)(N1CCOCC1)C(F)(F)F (configuration not stated),inactive: > 76.9 µM
4,CCOC(=O)c1sc(NS(=O)(=O)c2ccc(NC(C)=O)cc2)nc1C,inactive: > 76.9 µM
5,CN(CC(=O)NCC1CCCO1)S(=O)(=O)c1cc(Cl)ccc1Cl (configuration not stated),inactive: > 76.9 µM
6,CCOC(=O)C1CCCN(C(=O)c2sc3nc(-c4ccccc4)cn3c2C)C1 (configuration not stated),inactive: > 76.9 µM
7,COc1ccc(-c2csc(N(CC3CCCO3)C(=O)c3ccco3)n2)cc1 (configuration not stated),inactive: > 76.9 µM
8,Cc1ccc(CNC(=O)C2CC(=O)N(C3CCCCCCC3)C2)cc1 (configuration not stated),inactive: > 76.9 µM
9,CN1CCN(C(=O)c2ccc(COc3ccc(Cl)cc3Cl)cc2)CC1,inactive: > 76.9 µM
10,CCC(=O)Nc1cc(-c2nn3c(C)nnc3s2)ccc1C,inactive: > 76.9 µM
11,CCOC(=O)C(C(=O)OCC)C(=O)c1cc(OC)c(OC)c(OC)c1,inactive: > 76.9 µM
12,CCOC(=O)CSc1nnc(-c2cccc(Cl)c2)n1CC,inactive: > 76.9 µM
13,CCCCN(C(=O)CNC(=O)c1ccco1)C(C(=O)NC1CCCCC1)c1ccc(OC)cc1OC (configuration not stated),inactive: > 76.9 µM
14,OC1CCN(C(c2ccc3ncccc3c2)c2nnnn2C2CCCCC2)CC1 (configuration not stated),inactive: > 76.9 µM
15,COCCNC(=O)CSCc1nc(-c2ccc(SC)cc2)oc1C,inactive: > 76.9 µM
16,O=C(COC(=O)CCc1c[nH]c(=O)[nH]1)Nc1cccc(Cl)c1,inactive: > 76.9 µM
17,CCOc1ccc(-c2nnn(CC(=O)NCc3ccc(F)cc3)n2)cc1OCC,inactive: > 76.9 µM
18,COc1ccccc1-n1cc(C(=O)NCC(=O)N2CCN(c3ccccn3)CC2)c2ccccc2c1=O,inactive: > 76.9 µM
19,COC(=O)C(NC=O)C(O)(Cc1ccccc1)C(F)(F)F (configuration not stated),inactive: > 76.9 µM

row,SMILES,Potency
1,COC(=O)c1ccc(-n2nnnc2SCC(=O)NCc2cccc(C(=O)O)c2)cc1,inactive: > 76.9 µM
2,Cc1c(OCC(=O)OC(C)C)ccc2c3c(c(=O)oc12)CCC3,inactive: > 15.4 µM
3,Cc1ccc2c(CC(=O)Nc3nc(C)cs3)coc2c1,inactive: > 76.9 µM
4,c1csc(CNc2nc3ccccc3n2CCN2CCOCC2)c1,inactive: > 76.9 µM
5,Cc1ccc(-n2c(C)nc3c(cnn3-c3ccc(F)cc3)c2=O)cc1,inactive: > 76.9 µM
6,CC(C)CCn1nnnc1C(c1ccccc1F)N1CCC(C(N)=O)CC1 (configuration not stated),inactive: > 76.9 µM
7,CN(CC(=O)Nc1ccc2c(c1)OCCO2)S(=O)(=O)c1ccc(Br)s1,inactive: > 76.9 µM
8,O=C(CCN1C(=O)C2CC=CCC2C1=O)N1CCN(c2ccccn2)CC1 (configuration not stated),inactive: > 76.9 µM
9,Cc1ccc2nc3c(cc(C#N)c(=O)n3CCN3CCOCC3)c(=O)n2c1,inactive: > 76.9 µM
10,CCOC(=O)N1CCN(c2ncnc3c2oc2nc(CC(C)C)c4c(c23)CCC4)CC1,inactive: > 76.9 µM
11,Cc1cc(/N=C/N(C)C)on1,inactive: > 76.9 µM
12,CN(C)c1cc(N)c2ccccc2n1 (tested in a mixture with another compound),inactive
13,Cc1sc2ncnc(OCC(=O)N3CCN(S(=O)(=O)c4ccccc4)CC3)c2c1C,inactive: > 76.9 µM
14,CCOCc1nnc(NC(=O)CCc2ccccc2)s1,inactive: > 76.9 µM
15,CCOc1ccc(C2C=C(c3ccccc3)Nc3nnnn32)cc1 (configuration not stated),active: 3.74 µM
16,Cc1noc(C)c1CSCC(=O)N1CCN(c2ccc(F)cc2)CC1,inactive: > 76.9 µM
17,CC(C)C(NCc1c(Cl)cccc1Cl)C(=O)O (configuration not stated),inactive: > 76.9 µM
18,C=CCOc1ccc2ccccc2c1CNc1ncn[nH]1,inactive: > 76.9 µM
19,O=C1c2ccccc2C(=O)N1CCC(c1ccc(F)cc1)c1ccco1 (configuration not stated),inactive: > 76.9 µM
